The source of these data is ChEMBL document CHEMBL5634115, “Exploring novel anticancer pyrazole benzenesulfonamides featuring tail approach strategy as carbonic anhydrase inhibitors” (Eur J Med Chem, 2023).

Broadly, the IC50 is the concentration that gives 50% inhibition.

The target of this assay is Carbonic anhydrase 12 (Homo sapiens, UniProt O43570).
Carbonic anhydrase 12, sequence (O43570 whole entry): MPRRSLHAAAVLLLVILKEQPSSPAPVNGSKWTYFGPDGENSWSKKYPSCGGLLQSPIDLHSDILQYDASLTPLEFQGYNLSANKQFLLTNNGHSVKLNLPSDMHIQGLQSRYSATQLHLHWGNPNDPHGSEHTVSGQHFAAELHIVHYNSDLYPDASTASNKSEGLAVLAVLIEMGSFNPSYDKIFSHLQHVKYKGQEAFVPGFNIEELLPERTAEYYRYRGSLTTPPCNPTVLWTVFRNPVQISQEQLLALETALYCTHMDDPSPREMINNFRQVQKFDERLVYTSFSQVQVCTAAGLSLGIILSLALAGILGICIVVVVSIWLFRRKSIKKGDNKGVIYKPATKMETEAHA
As to `COc1ccc(-c2nn(-c3ccc(S(N)(=O)=O)cc3)cc2/C=N/Nc2ccc(C(=O)O)cc2)cc1`, 207 nM corresponded to half-maximal inhibition (IC50).

Molecule `CCOC(=O)c1cn(-c2ccc(S(N)(=O)=O)cc2)nc1-c1ccc(OC)cc1` yielded a 50% inhibitory concentration (IC50) of 276 nM.

`CS(=O)(=O)c1ccc(-c2nn(-c3ccc(S(N)(=O)=O)cc3)cc2C(=O)NNC(N)=O)cc1` returned a half-maximal inhibitory concentration (IC50) of 548 nM.

Consider `NS(=O)(=O)c1ccc(-n2cc(/C=N/NC3=NS(=O)(=O)c4ccccc43)c(-c3ccccc3)n2)cc1`, for which inhibition was half-maximal at 379 nM (IC50).

For `NS(=O)(=O)c1ccc(N/N=C/c2cn(-c3ccc(S(N)(=O)=O)cc3)nc2-c2ccccc2)cc1`, the IC50 worked out at 1360 nM.

In turn, `COc1ccc(-c2nn(-c3ccc(S(N)(=O)=O)cc3)cc2/C=N/Nc2ccc(S(N)(=O)=O)cc2)cc1` displayed a half-maximal inhibitory concentration (IC50) of 2870 nM.

With `COc1ccc(-c2nn(-c3ccc(S(N)(=O)=O)cc3)cc2C(=O)NNC(N)=O)cc1`, the half-inhibitory concentration (IC50) came out at 1060 nM.

`NS(=O)(=O)c1ccc(N/N=C/c2cn(-c3ccc(S(N)(=O)=O)cc3)nc2-c2ccc(Br)cc2)cc1` had a half-maximal inhibitory concentration (IC50) of 2420 nM.

As to `NS(=O)(=O)c1ccc(-n2cc(/C=N/Nc3ccc(C(=O)O)cc3)c(-c3ccc(Br)cc3)n2)cc1`, the IC50 is 84 nM.

In turn, `CS(=O)(=O)c1ccc(-c2nn(-c3ccc(S(N)(=O)=O)cc3)cc2C(=O)O)cc1` registered an IC50 of 1770 nM.

Molecule `CCOC(=O)c1cn(-c2ccc(S(N)(=O)=O)cc2)nc1-c1ccc(C)cc1` came in with an IC50 of 38 nM.

The molecule `CCOC(=O)c1ccc(N/N=C/c2cn(-c3ccc(S(N)(=O)=O)cc3)nc2-c2ccc(Br)cc2)cc1` had a 50% inhibitory concentration (IC50) of 1160 nM.

In the case of `CS(=O)(=O)c1ccc(-c2nn(-c3ccc(S(N)(=O)=O)cc3)cc2/C=N/Nc2ccc(S(N)(=O)=O)cc2)cc1`, the IC50 stood at 575 nM.

Take `COc1ccc(-c2nn(-c3ccc(S(N)(=O)=O)cc3)cc2C(=O)NO)cc1`: half-maximal inhibition (IC50) required 367 nM.

Regarding `NC(=O)NNC(=O)c1cn(-c2ccc(S(N)(=O)=O)cc2)nc1-c1ccccc1`, inhibition was half-maximal at 2030 nM (IC50).

For `NS(=O)(=O)c1ccc(-n2cc(C(=O)NO)c(-c3ccccc3)n2)cc1`, the half-inhibitory concentration (IC50) came to 722 nM.

Molecule `CCOC(=O)c1cn(-c2ccc(S(N)(=O)=O)cc2)nc1-c1ccccc1` yielded an IC50 of 545 nM.

Take `CCOC(=O)c1cn(-c2ccc(S(N)(=O)=O)cc2)nc1-c1ccc(S(C)(=O)=O)cc1`: it took 91 nM to reach half-maximal inhibition (IC50).

As to `CS(=O)(=O)c1ccc(-c2nn(-c3ccc(S(N)(=O)=O)cc3)cc2/C=N/Nc2ccc(C(=O)O)cc2)cc1`, the concentration for half-maximal inhibition (IC50) turned out to be 177 nM.

As to `CCOC(=O)c1ccc(N/N=C/c2cn(-c3ccc(S(N)(=O)=O)cc3)nc2-c2ccc(S(C)(=O)=O)cc2)cc1`, the IC50 came out at 101 nM.

Molecule `CS(=O)(=O)c1ccc(-c2nn(-c3ccc(S(N)(=O)=O)cc3)cc2C(=O)NN)cc1` showed an IC50 of 538 nM.

In turn, `CS(=O)(=O)c1ccc(-c2nn(-c3ccc(S(N)(=O)=O)cc3)cc2C(=O)NO)cc1` gave an IC50 of 74 nM.

`Cc1ccc(-c2nn(-c3ccc(S(N)(=O)=O)cc3)cc2/C=N/Nc2ccc(C(=O)O)cc2)cc1` came in with a 50% inhibitory concentration (IC50) of 102 nM.

For the molecule `CCOC(=O)c1cn(-c2ccc(S(N)(=O)=O)cc2)nc1-c1ccc(Br)cc1`, the IC50 was 165 nM.

For `Cc1ccc(-c2nn(-c3ccc(S(N)(=O)=O)cc3)cc2C(=O)NO)cc1`, the IC50 was determined as 69 nM.

The molecule `Cc1ccc(-c2nn(-c3ccc(S(N)(=O)=O)cc3)cc2C(=O)NNC(N)=O)cc1` registered a 50% inhibitory concentration (IC50) of 385 nM.

Take `NS(=O)(=O)c1ccc(-n2cc(C(=O)NO)c(-c3ccc(Br)cc3)n2)cc1`: the half-maximal inhibitory concentration (IC50) is 79 nM.
